Viability of KB3-1 and Nalm-6 cells after 48 h of drug alone (CellTiter-Glo), 11 doses over about 4.5 log units. % of DMSO wells, lower = more cell loss; AC50 from the fitted curve, lower = more potent. No active / inactive call. Nalm-6 was screened in two runs. AC50 is listed only for well-fitted inhibitory curves. KB3-1 is a HeLa-derived carcinoma line, Nalm-6 a B-cell precursor leukaemia line.
Legend:
Nalm-6 [1] = test: log AC50 of viability decrease (48 h) (log10 M); higher = less potent
Method: (§1)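 Eleven-dose screen of the NCATS MIPE 3 library on cells without co-treatment; CellTiter-Glo after 48 h. AC50 from the curve fit; only inhibitory curves of the better fit classes are listed.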

KB3-1 [2] = test: as above
Method: as §1

Nalm-6 [3] = test: viability (% of DMSO control); higher = more viable cells
Method: (§2)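 Eleven-dose screen of the NCATS MIPE 3 library on cells without co-treatment; CellTiter-Glo after 48 h, as % of DMSO wells.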

KB3-1 [4] = test: as above
Method: as §2

Row | Structure (SMILES) | log AC50 of viability decrease (Nalm-6 [1]; run: 1) | log AC50 of viability decrease (Nalm-6 [1]; run: 2) | log AC50 of viability decrease (KB3-1 [2]) | viability (Nalm-6 [3]; run: 1, 0.00078 µM) [%] | viability (Nalm-6 [3]; run: 1, 0.00234 µM) [%] | viability (Nalm-6 [3]; run: 1, 0.00702 µM) [%] | viability (Nalm-6 [3]; run: 1, 0.0211 µM) [%] | viability (Nalm-6 [3]; run: 1, 0.0632 µM) [%] | viability (Nalm-6 [3]; run: 1, 0.19 µM) [%] | viability (Nalm-6 [3]; run: 1, 0.569 µM) [%] | viability (Nalm-6 [3]; run: 1, 1.71 µM) [%] | viability (Nalm-6 [3]; run: 1, 5.12 µM) [%] | viability (Nalm-6 [3]; run: 1, 15.4 µM) [%] | viability (Nalm-6 [3]; run: 1, 46.1 µM) [%] | viability (Nalm-6 [3]; run: 2, 0.00078 µM) [%] | viability (Nalm-6 [3]; run: 2, 0.00234 µM) [%] | viability (Nalm-6 [3]; run: 2, 0.00702 µM) [%] | viability (Nalm-6 [3]; run: 2, 0.0211 µM) [%] | viability (Nalm-6 [3]; run: 2, 0.0632 µM) [%] | viability (Nalm-6 [3]; run: 2, 0.19 µM) [%] | viability (Nalm-6 [3]; run: 2, 0.569 µM) [%] | viability (Nalm-6 [3]; run: 2, 1.71 µM) [%] | viability (Nalm-6 [3]; run: 2, 5.12 µM) [%] | viability (Nalm-6 [3]; run: 2, 15.4 µM) [%] | viability (Nalm-6 [3]; run: 2, 46.1 µM) [%] | viability (KB3-1 [4]; 0.00078 µM) [%] | viability (KB3-1 [4]; 0.00234 µM) [%] | viability (KB3-1 [4]; 0.00702 µM) [%] | viability (KB3-1 [4]; 0.0211 µM) [%] | viability (KB3-1 [4]; 0.0632 µM) [%] | viability (KB3-1 [4]; 0.19 µM) [%] | viability (KB3-1 [4]; 0.569 µM) [%] | viability (KB3-1 [4]; 1.71 µM) [%] | viability (KB3-1 [4]; 5.12 µM) [%] | viability (KB3-1 [4]; 15.4 µM) [%] | viability (KB3-1 [4]; 46.1 µM) [%]
1 | CCOc1cc2ncc(C#N)c(Nc3ccc(F)c(Cl)c3)c2cc1NC(=O)/C=C/CN(C)C [Pelitinib] | -5.53 | -5.33 | -4.83 | 110 | 112 | 121 | 117 | 116 | 112 | 80.7 | 60.7 | 43.2 | 4.65 | -0.799 | 104 | 108 | 105 | 106 | 112 | 98.8 | 80.3 | 67.5 | 47.2 | 4.8 | 0.00142 | 98.2 | 102 | 100 | 99.1 | 99.3 | 85.6 | 81.8 | 77.9 | 50.4 | 50.2 | 1.76
2 | COc1ccc(-c2ccc3c(N4CCOCC4)nc(N4C[C@@H](C)O[C@@H](C)C4)nc3n2)cc1CO | -6.03 | -5.83 | -6.98 | 89.1 | 101 | 95 | 94.1 | 89.1 | 88.1 | 68.6 | 56 | 49.3 | 46.4 | 32.6 | 100 | 105 | 107 | 107 | 97.6 | 90.2 | 69.2 | 62.5 | 51.5 | 47.9 | 26.1 | 104 | 98.8 | 96.3 | 87.4 | 77.5 | 65.1 | 51.1 | 42 | 42.2 | 37 | 38.8
3 | CO[C@H]1C[C@@H]2CC[C@@H](C)[C@@](O)(O2)C(=O)C(=O)N2CCCC[C@H]2C(=O)O[C@H]([C@H](C)C[C@@H]2CC[C@@H](OCCO)[C@H](OC)C2)CC(=O)[C@H](C)/C=C(/C)[C@@H](O)[C@@H](OC)C(=O)[C@H](C)C[C@H](C)\C=C/C=C\C=C/1C [Everolimus] | -4.63 |  | -4.63 | 84.2 | 85.1 | 80.8 | 76.5 | 77.3 | 80.8 | 77.8 | 75.9 | 72.6 | 67 | -0.71 | 89 | 83.5 | 88.9 | 81.9 | 89.9 | 83.5 | 81.4 | 89.8 | 80 | 76.6 | -0.656 | 84.2 | 79.6 | 80 | 79.4 | 80.9 | 77.2 | 73.3 | 75 | 72.3 | 68.6 | 26.3

From the supplement of paper PMC4996465
